Measured values published in PubChem BioAssay AID651820 (National Center for Advancing Translational Sciences (NCATS), 2012).
Where “and” joins values, the source holds several entries; their conditions need not be identical. Equal entries are not always repeated. The whole screen tested about 340,000 compounds, of which about 12,000 (3.5%) were called active. Inconclusive means that the source gave no clear call. Such entries were picked first, then a sample of the others. Calls come from the whole dose curve; as a rule, active = well fitted inhibition curve with a large enough effect; inconclusive = small, poorly fitted or top-dose-only effect, or another doubt; inactive = no such curve, though single readings can be large or run the other way. Potencies beside an inconclusive call are fits to weak or partial responses and may not hold up.

test: qHTS Assay for Inhibitors of Hepatitis C Virus (HCV); conditions: Huh7.5.1 HCVcc-Cre (HCVcc is cell-culture hepatitis C virus) infection, luciferase reporter, 44 h; activity change, negative = inhibition: at 41.8 µM (top of the series) unless noted
In short: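 Cells seeded at 1,000/well and cultured 4 h, then compounds added followed by HCVcc-Cre virus (~0.5 moi). After 44 h further culture, luciferase substrate was added, plates held 15 min at room temperature, and luminescence read for 15 sec.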
% is set by controls: 0 for no effect and ±100 for the full control effect; potency is the fitted concentration of half-maximal effect; tags give direction and shape of the fitted curve.

For `Cc1ccccc1C(=O)Nc1ccc2c(c1)OCCO2`, which Potency is on record?
Its Potency is “inactive”.

For `O=C(C1CC=CCC1)N1CCC(CO)(Cc2ccc(Cl)cc2)CC1` (stereo not drawn), which Potency is on record?
Its Potency is inconclusive: 31.6 µM [inhibitor, single point].

For `c1ccc(CCn2nnnc2C(c2cccs2)N2CCN(Cc3ccc4c(c3)OCO4)CC2)cc1` (stereo not drawn), which Potency is on record?
The Potency was inconclusive: 12.6 µM [inhibitor, single point] and inconclusive: 31.6 µM [inhibitor, single point].

Which Potency does the source give for `Cc1ccc(S(=O)(=O)N(C(=O)c2ccncc2)c2ccc3oc4c(c3c2)CCCC4)cc1[N+](=O)[O-]` here?
The Potency was inconclusive: 7.08 µM [inhibitor, partial curve].

With `O=C(Nc1ccc2oc(-c3cccc(F)c3)nc2c1)c1ccccc1F` as the molecule, how does the Potency read?
Its Potency is inconclusive: 5.62 µM [inhibitor, single point].

With `Cn1nnnc1SCC(=O)Nc1nc(-c2ccc(F)c(F)c2)cs1` as the molecule, how does the Potency read?
The Potency was inconclusive: 25.1 µM [inhibitor, single point].

For `O=C(NCc1cccnc1)c1ccc(Cl)c(S(=O)(=O)N2CCCCCC2)c1`, which Potency is on record?
The Potency was inconclusive: 10 µM [inhibitor, partial curve].

Which Potency does the source give for `CC1(C)COC(c2ccc(F)c([N+](=O)[O-])c2)=N1` here?
Its Potency is inconclusive: 14.1 µM [inhibitor, partial curve].

Which Potency does the source give for `CC(C)OC(=O)/C(C#N)=C/c1cn(Cc2ccccc2)c2ccccc12` here?
The Potency was inconclusive: 10 µM [inhibitor, partial curve].

With `CCn1c(=O)c2c(nc3n2CCN3c2ccccc2)n(C)c1=O` as the molecule, how does the Potency read?
Its Potency is inconclusive: 1.41 µM [inhibitor, partial curve].

Which Potency does the source give for `CN(CCc1ccccc1)C(=O)c1cccc(NC(=O)Cc2cccc(NC(=O)C3CCCN(C(=O)C4CCC4)C3)c2)c1` (stereo not drawn) here?
Its Potency is active: 10 µM.

Which Potency does the source give for `CN(C)CCOC(c1ccc(Cl)cc1)c1ccccn1` (stereo not drawn) here?
The Potency was inconclusive: 17.8 µM [inhibitor, partial curve, poor fit] and inconclusive: 8.91 µM [inhibitor, partial curve, poor fit].

With `COc1ccc(CC(=O)Nc2ccc(N3CCN(c4ccc(OC)cc4)CC3)c(C#N)c2)cc1` as the molecule, how does the Potency read?
Its Potency is inconclusive: 3.55 µM [inhibitor, single point].

For `Cc1ccc(Oc2ccccc2/C=C2\SC(=O)N(C)C2=O)cc1`, which Potency is on record?
The Potency was inconclusive: 31.6 µM [inhibitor, single point].

With `CCCCOC(=O)Nc1ccc(C(C)C)cc1` as the molecule, how does the Potency read?
The Potency was “inactive”.

Which Potency does the source give for `O=C(Nc1ccccc1)C1C2CCCCC21` (stereo not drawn) here?
The Potency was “inactive”.

For `Cc1ccc(N(C)S(=O)(=O)c2cc3c(cc2C)NC(=O)CO3)cc1`, which Potency is on record?
The Potency was inconclusive: 11.2 µM [inhibitor, single point].

With `CC(C)Oc1ccc(CN=C(N)N=C(N)N)cc1Cl` as the molecule, how does the activity change, negative = inhibition read?
Its activity change, negative = inhibition is inconclusive: -42% [inhibitor].

With `CCCCn1c(SCC(=O)c2ccccc2)nc2ccsc2c1=O` as the molecule, how does the Potency read?
Its Potency is inconclusive: 11.2 µM [inhibitor, single point].

Which Potency does the source give for `Cc1ccc(C(=O)NC(C)c2ccc(-n3ccnc3)cc2)cc1` (stereo not drawn) here?
The Potency was inconclusive: 31.6 µM [inhibitor, single point].

For `O=C(O)/C=C/c1ccc(S(=O)(=O)NCc2cccnc2)cc1`, which Potency is on record?
The Potency was “inactive”.

Which Potency does the source give for `Cc1c(C)c2cc3c4c(oc3c(C)c2oc1=O)CCCC4` here?
Its Potency is inconclusive: 31.6 µM [inhibitor, single point].

With `Cc1cc(C)nc(Nc2nc(-c3ccccc3)cs2)n1` as the molecule, how does the Potency read?
The Potency was inconclusive: 10 µM [inhibitor, single point].

Which Potency does the source give for `COc1ccc(N=NC2C(=O)N(c3ccccc3)N=C2C)cc1` (stereo not drawn) here?
The Potency was inconclusive: 10 µM [inhibitor, single point].

Which Potency does the source give for `CCN(CC)S(=O)(=O)c1cccc(C(=O)/C=C2/N(C)c3ccccc3C2(C)C)c1` here?
Its Potency is active: 10 µM.

With `COC1=CC(=O)OC(c2ccc(OC)cc2)C1` (stereo not drawn) as the molecule, how does the Potency read?
Its Potency is “inactive”.

Which Potency does the source give for `C=CCC1(CC=C)CCCN1C(=O)C1CCC(=O)N(CCc2ccc(OC)cc2)C1` (stereo not drawn) here?
The Potency was inconclusive: 31.6 µM [inhibitor, single point].

With `OC(CN1CCN(Cc2ccccc2)CC1)Cn1c2ccccc2c2ccccc21` (stereo not drawn) as the molecule, how does the Potency read?
The Potency was active: 11.2 µM.

With `O=C(Cn1cnc2c(OCc3ccccc3)ncnc21)NCc1ccccc1` as the molecule, how does the Potency read?
The Potency was inconclusive: 11.2 µM [inhibitor, partial curve, poor fit].

Which Potency does the source give for `CNCc1ccccc1Sc1ccc(O)c(O)c1` here?
The Potency was inconclusive: 11.2 µM [inhibitor, single point].

Which Potency does the source give for `CCOC(=O)c1c(NC(=O)CN2CCN(S(=O)(=O)c3cc(Cl)ccc3Cl)CC2)sc(C(=O)N(C)C)c1C` here?
Its Potency is active: 11.2 µM.

Which Potency does the source give for `COc1cc(/C=C2\COC/C(=C\c3ccc(O)c(OC)c3)C2=O)ccc1O` here?
Its Potency is active: 11.2 µM.

With `c1ccc2c(c1)-c1cccc3cccc-2c13` as the molecule, how does the Potency read?
The Potency was inconclusive: 31.6 µM [inhibitor, single point].

Which Potency does the source give for `CC(OC(=O)c1ccc(-c2ccc(O)cc2)cc1)C(=O)NC1CCCCC1C` (stereo not drawn) here?
The Potency was active: 12.6 µM.

For `Cc1csc(SC(C)C(=O)Nc2ccc(F)cc2Cl)n1` (stereo not drawn), which Potency is on record?
The Potency was inconclusive: 0.501 µM [inhibitor, full curve, poor fit].

For `CC(C)CC(NC(=O)C(CO)NC(=O)C1CCC(=O)N1)C(N)=O` (stereo not drawn), which Potency is on record?
The Potency was “inactive”.

With `Cc1cc(C)c2[nH]c(O)c(N=NC(=S)NCC3CCCO3)c2c1` (stereo not drawn) as the molecule, how does the Potency read?
Its Potency is “inactive”.

Which Potency does the source give for `CCOc1ccc2nc(SCC(=O)Nc3ccc(S(=O)(=O)N4CCCC4)cc3)c(C)cc2c1` here?
Its Potency is inconclusive: 15.8 µM [inhibitor, single point].

With `O=C(Nc1ccccc1F)c1ccc(S(=O)(=O)N2CCCCCC2)cc1` as the molecule, how does the Potency read?
Its Potency is inconclusive: 7.94 µM [inhibitor, single point].

With `Cc1ccc(S(=O)(=O)N2CCN(S(C)(=O)=O)C2)cc1` as the molecule, how does the Potency read?
Its Potency is “inactive”.

Which Potency does the source give for `CCCOc1ccc2c3c(c(=O)oc2c1OCCC)CCCC3` here?
The Potency was inconclusive: 11.2 µM [inhibitor, partial curve, poor fit].

Which Potency does the source give for `CCCCOc1ccc(C(=O)NCC(=O)NC(C)CCc2ccccc2)cc1` (stereo not drawn) here?
The Potency was inconclusive: 10 µM [inhibitor, partial curve].

With `CC(C)CCn1c(=O)c2ccccc2n2c(CCC(=O)NC3CCN(Cc4ccccc4)CC3)nnc12` as the molecule, how does the Potency read?
Its Potency is inconclusive: 3.16 µM [inhibitor, full curve].
